The supplement of paper PMC12217912
The list shows a part of the results. Sequences were assembled here from the parent chain. Inactive controls read about 0.05.

B1: TEV protease; numbered along this chain (parent)
chain: MGESLFKGPRDYNPISSSICHLTNESDGHTTSLYGIGFGPFIITNKHLFRRNNGTLVVQSLHGVFKVKDTTTLQQHLVDGRDMIIIRMPKDFPPFPQKLKFREPQREERICLVTTNFQTKSMSSMVSDTSCTFPSGDGIFWKHWIQTKDGQCGSPLVSTRDGFIVGIHSASNFTNTNNYFTSVPKNFMELLTNQEAQQWVSGWRLNADSVLWGGHKVFMVKPEEPFQPVKEATQL

Variants of: B1
Test: raw area under fraction-flipped curve 0-4 h after induction (AUC4h, not background-subtracted), DNA-recorder readout of cleavage of the substrate (dimensionless); higher = more cleavage of the substrate by the protease variant
Details: temperature: 34 °C; time window: 0-4 h after rhamnose induction
Method: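 In vivo DNA recorder in E. coli TOP10(DE3) ΔrhaA at 34 °C. Each TEVp single-site mutant (parent TEVp 0) is paired with a single-site variant of the 7-mer TEVs (canonical ENLYFQ|S). The substrate sits between flexible linkers in a Bxb1-sfGFP-TEVs-SsrA fusion, so cleavage stabilises Bxb1 and speeds flipping of a recombination array, read by NGS. The value is the raw area under the fraction-flipped curve over 0-4 h after rhamnose induction (AUC4h), with ≥20 reads per time point. It is not background-subtracted; inactive controls average about 0.047.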
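Also: Bxb1 expression induced with 0.2% (w/v) L-rhamnose at OD600 near 0.5, cultures sampled hourly, flipped fraction per protease–substrate barcode pair counted by paired-end Illumina sequencing.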

| Variant | area with substrate ECLYFQS | area with substrate EDLYFQS | area with substrate EELYFQS | area with substrate EFLYFQS | area with substrate EGLYFQS | area with substrate EHLYFQS | area with substrate EILYFQS | area with substrate ELLYFQS | area with substrate EMLYFQS | area with substrate ERLYFQS | area with substrate ESLYFQS | area with substrate ETLYFQS | area with substrate EVLYFQS | area with substrate EWLYFQS | area with substrate EYLYFQS | area with substrate EKLYFQS | area with substrate EQLYFQS | area with substrate EPLYFQS |
| --- | --- | --- | --- | --- | --- | --- | --- | --- | --- | --- | --- | --- | --- | --- | --- | --- | --- | --- |
| MGESLFKGPQDYNPISSSICHLTNESDGHTTSLYGIGFGPFIITNKHLFRRNNGTLVVQSLHGVFKVKDTTTLQQHLVDGRDMIIIRMPKDFPPFPQKLKFREPQREERICLVTTNFQTKSMSSMVSDTSCTFPSGDGIFWKHWIQTKDGQCGSPLVSTRDGFIVGIHSASNFTNTNNYFTSVPKNFMELLTNQEAQQWVSGWRLNADSVLWGGHKVFMVKPEEPFQPVKEATQL [R10Q] | 0.111 | 0.124 | 0.0914 | 0.0833 | 0.0631 | 0.111 | 0.0967 | 0.0997 | 0.131 | 0.109 | 0.124 | 0.137 | 0.11 | 0.103 | 0.103 |  |  |  |
| MGESLFKGPRGYNPISSSICHLTNESDGHTTSLYGIGFGPFIITNKHLFRRNNGTLVVQSLHGVFKVKDTTTLQQHLVDGRDMIIIRMPKDFPPFPQKLKFREPQREERICLVTTNFQTKSMSSMVSDTSCTFPSGDGIFWKHWIQTKDGQCGSPLVSTRDGFIVGIHSASNFTNTNNYFTSVPKNFMELLTNQEAQQWVSGWRLNADSVLWGGHKVFMVKPEEPFQPVKEATQL [D11G] | 0.0999 | 0.112 | 0.115 | 0.102 | 0.102 | 0.103 | 0.0459 |  | 0.103 | 0.108 | 0.11 |  | 0.0996 |  | 0.108 | 0.0987 | 0.102 |  |
| MGESLFKGPRNYNPISSSICHLTNESDGHTTSLYGIGFGPFIITNKHLFRRNNGTLVVQSLHGVFKVKDTTTLQQHLVDGRDMIIIRMPKDFPPFPQKLKFREPQREERICLVTTNFQTKSMSSMVSDTSCTFPSGDGIFWKHWIQTKDGQCGSPLVSTRDGFIVGIHSASNFTNTNNYFTSVPKNFMELLTNQEAQQWVSGWRLNADSVLWGGHKVFMVKPEEPFQPVKEATQL [D11N] | 0.0827 | 0.118 |  | 0.132 | 0.092 | 0.0948 | 0.0945 | 0.0912 | 0.0941 | 0.164 | 0.083 |  | 0.0996 | 0.0874 | 0.113 | 0.111 | 0.118 |  |
| MGESLFKGPRYYNPISSSICHLTNESDGHTTSLYGIGFGPFIITNKHLFRRNNGTLVVQSLHGVFKVKDTTTLQQHLVDGRDMIIIRMPKDFPPFPQKLKFREPQREERICLVTTNFQTKSMSSMVSDTSCTFPSGDGIFWKHWIQTKDGQCGSPLVSTRDGFIVGIHSASNFTNTNNYFTSVPKNFMELLTNQEAQQWVSGWRLNADSVLWGGHKVFMVKPEEPFQPVKEATQL [D11Y] | 0.102 | 0.11 | 0.108 |  | 0.0901 | 0.0819 | 0.086 | 0.0802 | 0.0973 | 0.0754 | 0.107 | 0.107 | 0.107 | 0.0753 | 0.0156 | 0.0867 | 0.135 | 0.104 |
| MGESLFKGPRDGNPISSSICHLTNESDGHTTSLYGIGFGPFIITNKHLFRRNNGTLVVQSLHGVFKVKDTTTLQQHLVDGRDMIIIRMPKDFPPFPQKLKFREPQREERICLVTTNFQTKSMSSMVSDTSCTFPSGDGIFWKHWIQTKDGQCGSPLVSTRDGFIVGIHSASNFTNTNNYFTSVPKNFMELLTNQEAQQWVSGWRLNADSVLWGGHKVFMVKPEEPFQPVKEATQL [Y12G] | 0.115 | 0.118 | 0.138 | 0.0835 |  | 0.108 | 0.102 | 0.0758 | 0.112 | 0.103 | 0.0519 | 0.14 | 0.103 |  |  | 0.113 | 0.119 | 0.118 |
| MGESLFKGPRDYYPISSSICHLTNESDGHTTSLYGIGFGPFIITNKHLFRRNNGTLVVQSLHGVFKVKDTTTLQQHLVDGRDMIIIRMPKDFPPFPQKLKFREPQREERICLVTTNFQTKSMSSMVSDTSCTFPSGDGIFWKHWIQTKDGQCGSPLVSTRDGFIVGIHSASNFTNTNNYFTSVPKNFMELLTNQEAQQWVSGWRLNADSVLWGGHKVFMVKPEEPFQPVKEATQL [N13Y] | 0.0892 | 0.124 | 0.112 |  | 0.0756 | 0.119 | 0.0739 |  | 0.157 | 0.0956 | 0.103 |  | 0.101 |  | 0.118 | 0.101 | 0.121 | 0.107 |
| MGESLFKGPRDYNDISSSICHLTNESDGHTTSLYGIGFGPFIITNKHLFRRNNGTLVVQSLHGVFKVKDTTTLQQHLVDGRDMIIIRMPKDFPPFPQKLKFREPQREERICLVTTNFQTKSMSSMVSDTSCTFPSGDGIFWKHWIQTKDGQCGSPLVSTRDGFIVGIHSASNFTNTNNYFTSVPKNFMELLTNQEAQQWVSGWRLNADSVLWGGHKVFMVKPEEPFQPVKEATQL [P14D] | 0.092 | 0.121 | 0.0508 | 0.134 | 0.0974 |  | 0.0924 | 0.105 | 0.119 | 0.104 | 0.11 |  | 0.0849 |  | 0.152 | 0.113 | 0.119 | 0.115 |
| MGESLFKGPRDYNGISSSICHLTNESDGHTTSLYGIGFGPFIITNKHLFRRNNGTLVVQSLHGVFKVKDTTTLQQHLVDGRDMIIIRMPKDFPPFPQKLKFREPQREERICLVTTNFQTKSMSSMVSDTSCTFPSGDGIFWKHWIQTKDGQCGSPLVSTRDGFIVGIHSASNFTNTNNYFTSVPKNFMELLTNQEAQQWVSGWRLNADSVLWGGHKVFMVKPEEPFQPVKEATQL [P14G] | 0.107 |  | 0.13 | 0.108 | 0.144 | 0.139 | 0.113 |  | 0.104 | 0.0954 | 0.105 |  |  | 0.109 | 0.1 | 0.0664 |  |  |
